# Results as given in the supplement of paper PMC12217912.
# The list shows a part of the results. The full chains were built here from the parent and the listed change. Inactive controls read about 0.05.
# B1: TEV protease; numbered along this chain (parent)
# chain: MGESLFKGPRDYNPISSSICHLTNESDGHTTSLYGIGFGPFIITNKHLFRRNNGTLVVQSLHGVFKVKDTTTLQQHLVDGRDMIIIRMPKDFPPFPQKLKFREPQREERICLVTTNFQTKSMSSMVSDTSCTFPSGDGIFWKHWIQTKDGQCGSPLVSTRDGFIVGIHSASNFTNTNNYFTSVPKNFMELLTNQEAQQWVSGWRLNADSVLWGGHKVFMVKPEEPFQPVKEATQL
# Variants of: B1
# Assay: raw area under fraction-flipped curve 0-4 h after induction (AUC4h, not background-subtracted), DNA-recorder readout of cleavage of the substrate (dimensionless); higher = more cleavage of the substrate by the protease variant
# Conditions: temperature: 34 °C; time window: 0-4 h after rhamnose induction
# Method: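 In vivo DNA recorder in E. coli TOP10(DE3) ΔrhaA at 34 °C. Each TEVp single-site mutant (parent TEVp 0) is paired with a single-site variant of the 7-mer TEVs (canonical ENLYFQ|S). The substrate sits between flexible linkers in a Bxb1-sfGFP-TEVs-SsrA fusion, so cleavage stabilises Bxb1 and speeds flipping of a recombination array, read by NGS. The value is the raw area under the fraction-flipped curve over 0-4 h after rhamnose induction (AUC4h), with ≥20 reads per time point. It is not background-subtracted; inactive controls average about 0.047.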
# 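Further: Bxb1 expression induced with 0.2% (w/v) L-rhamnose at OD600 near 0.5, cultures sampled hourly, flipped fraction per protease–substrate barcode pair counted by paired-end Illumina sequencing.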
Variant,area with substrate ENLYFQA,area with substrate ENLYFQG,area with substrate ENLYFQH,area with substrate ENLYFQL,area with substrate ENLYFQM,area with substrate ENLYFQN,area with substrate ENLYFQR,area with substrate ENLYFQS,area with substrate ENLYFQV,area with substrate ENLYFQW,area with substrate ENLYFQC,area with substrate ENLYFQD,area with substrate ENLYFQF,area with substrate ENLYFQI,area with substrate ENLYFQP,area with substrate ENLYFQT,area with substrate ENLYFQQ,area with substrate ENLYFQY,area with substrate ENLYFQK,area with substrate ENLYFQE
V64E,0.0996,0.0922,0.0784,0.0718,0.073,0.0773,0.0558,0.104,0.0581,0.0605,–,–,–,–,–,–,–,–,–,–
K66S,0.0909,0.087,0.0838,0.0211,0.0903,–,0.0665,0.103,–,0.055,0.112,0.0815,0.0608,0.0472,0.0417,0.0775,–,–,–,–
F101N,0.0391,0.0653,–,0.035,–,0.0558,0.0502,0.0481,–,0.0508,0.042,0.0581,–,0.043,–,0.0548,0.0498,0.0315,–,–
D79N,0.0876,0.0821,–,0.0506,0.0827,0.0787,0.0663,0.0911,0.066,0.0665,0.113,0.0749,0.0615,0.0568,–,0.0557,0.0762,0.0717,–,–
L56G,0.0522,–,–,0.0409,0.0511,0.0502,0.0458,0.0523,0.0573,0.0427,–,0.0558,–,0.0455,0.0487,0.0375,–,0.0505,0.0479,–
L56R,0.0506,0.0557,0.0494,0.0452,0.0624,0.0396,–,0.0486,–,0.0327,0.0477,0.0437,0.039,0.0364,0.0617,–,–,–,0.0652,–
L56A,0.0784,–,0.0545,0.0688,0.0662,–,0.0579,0.076,–,–,0.0877,0.0595,0.0732,–,–,0.0512,–,0.0292,0.0582,–
L56F,0.004,–,0.0851,0.0636,0.0799,0.0768,0.061,0.0902,0.0555,0.0664,0.0828,0.0654,0.0678,0.0746,0.0535,0.0468,–,–,0.0774,0.0698
L56H,0.048,–,–,0.0331,0.0488,0.0412,0.0732,0.0466,–,–,0.0496,0.0543,–,–,–,0.0436,0.0481,–,–,–
G80V,0.101,0.067,–,0.0592,0.111,0.0802,–,0.109,–,0.0699,0.113,–,–,0.0576,0.0519,0.0672,0.0641,0.0634,0.0635,–
G80W,0.0916,0.118,–,0.0591,0.0854,0.104,0.0578,0.11,–,–,0.109,–,0.0763,0.0525,0.0596,0.0639,0.0631,0.0777,0.0444,–
G80A,0.146,–,–,–,0.1,0.0701,–,0.101,–,–,0.089,–,–,0.0708,0.0945,–,–,–,–,–
G80I,0.129,0.126,0.0771,0.0473,0.0844,0.0666,–,0.114,0.0555,0.052,–,0.0738,–,0.0544,–,–,0.0785,–,0.0728,–
G80E,0.0954,0.0739,0.111,0.0617,0.114,–,–,0.126,–,0.0789,0.125,–,0.0661,0.0608,0.0554,0.0731,0.076,–,0.066,–
G80M,0.132,–,0.0655,0.0635,–,0.0925,0.0629,0.103,0.028,–,0.127,–,–,–,0.0733,0.0505,–,0.0911,0.0675,–
R81H,0.103,–,0.0793,0.0541,0.0737,–,0.0676,0.0909,–,0.0632,0.0965,0.0672,0.0653,0.0575,–,0.0581,–,–,0.0599,–
F65A,0.111,0.0938,–,–,0.0915,0.0642,0.0587,0.0977,0.0518,0.0637,0.113,0.0581,–,–,0.0467,0.0339,–,0.0817,0.0571,–
P104R,0.054,–,–,–,0.0508,–,0.0519,0.0539,–,0.0251,0.0473,0.0571,–,0.0588,–,0.0548,0.0944,0.0457,0.0606,0.0912
P104N,0.0538,–,–,0.0507,0.0476,0.0453,0.0458,0.0523,0.0518,0.0437,0.0507,–,–,–,–,0.072,–,–,–,–
P104C,0.0804,0.0759,–,0.0753,0.0658,0.0707,0.0584,0.0836,0.0593,0.0328,0.101,0.0116,–,–,0.0454,0.052,0.0627,0.063,0.0835,–
P104H,0.0405,–,0.0776,–,–,–,–,0.0534,–,0.0524,0.0444,–,–,0.0504,0.0547,0.0394,–,–,0.053,–
H76C,0.121,–,0.0735,0.06,0.0905,0.0942,0.0629,0.112,0.0542,0.0709,0.127,–,0.0856,0.0583,–,0.0704,0.0728,0.0515,0.0682,–
H62K,0.0891,–,–,0.0549,–,–,0.0693,0.104,0.0531,–,–,0.0655,–,–,–,–,–,0.0834,0.0772,–
R102I,0.0378,0.0559,0.0462,–,0.0353,0.0534,0.0482,0.049,0.0404,0.0551,0.0504,0.0408,–,0.0365,0.0387,–,–,0.0511,–,0.0458
R102G,0.0524,–,–,0.051,0.0566,0.0528,0.0544,0.0604,0.0511,0.0448,0.0615,–,–,0.0585,–,0.0449,–,0.0627,0.0565,0.05
F95Y,0.102,–,0.0757,0.0403,0.0685,0.0785,–,0.0998,0.049,0.0587,0.111,–,–,–,–,–,–,–,0.0668,–
L73V,0.101,–,0.0725,0.06,–,0.0768,0.0675,0.0908,0.0448,0.0648,0.107,–,0.0647,0.0595,–,0.0609,0.0569,0.0851,0.0731,–
